Test results from the supplement of paper PMC9151546.
Repeats are few or missing, and single values can be far off.

What was measured:
CHO-K1 [1] = assay: relative survival (nuclei to bead ratio vs DMSO control) (% of vehicle control); higher = more surviving cells
Method: (§1)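 Flow-cytometric in vitro micronucleus assay (Litron MicroFlow) in CHO-K1 cells in 96-well plates, 19 concentrations (4.5-200 µM, n=1 per concentration). Without S9, cells were exposed for 24 h and sampled at 48 h. With Aroclor 1254-induced rat liver S9, cells were exposed for 3-4 h and sampled at 27-28 h. Read-outs are %MN and %hypodiploid nuclei relative to nucleated events, and relative survival as the nuclei-to-bead ratio versus the 1% DMSO vehicle control (x100).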

CHO-K1 [2] = assay: micronucleus frequency (% of nucleated events); higher = more micronuclei (genotoxic)
CHO-K1 [3] = assay: hypodiploid nuclei frequency (% of nucleated events); higher = more hypodiploid events (aneugenic)
Method: as §1
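Throughout, for hypodiploid nuclei frequency (% of nucleated events): hypodiploid nuclei gated on a flow cytometer with 488 nm excitation after SYTOX Green staining, cultures at 37 °C, positive controls vinblastine without S9 and cyclophosphamide with S9.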
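Throughout, for micronucleus frequency (% of nucleated events): cells lysed with nuclei stained by SYTOX Green, then micronucleus-gated events counted against nucleated events by flow cytometry with 488 nm excitation.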
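Throughout, for relative survival (nuclei to bead ratio vs DMSO control): Lysed-cell nuclei stained with SYTOX Green and counted against counting beads by flow cytometry at 488 nm excitation, with vinblastine (no S9) and cyclophosphamide (plus S9) as positive controls.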

COc1ccc([N+](=O)[O-])cc1N [2-Methoxy-5-nitroaniline]
Conditions	hypodiploid nuclei frequency, CHO-K1 [3] [%]	micronucleus frequency, CHO-K1 [2] [%]	relative survival, CHO-K1 [1]
concentration: 4.5 (µM), S9 metabolic activation: with S9, exposure time: 3-4 hours	0.2	0.82	132
concentration: 4.5 (µM), S9 metabolic activation: without S9, exposure time: 24 hours	1.44	1.92	106
concentration: 5.63 (µM), S9 metabolic activation: with S9, exposure time: 3-4 hours	0.22	0.96	121
concentration: 5.63 (µM), S9 metabolic activation: without S9, exposure time: 24 hours	0.62	1.34	99
concentration: 7.04 (µM), S9 metabolic activation: with S9, exposure time: 3-4 hours	0.22	0.96	126
concentration: 7.04 (µM), S9 metabolic activation: without S9, exposure time: 24 hours	1.08	2.28	123
concentration: 8.8 (µM), S9 metabolic activation: with S9, exposure time: 3-4 hours	0.24	1.06	119
concentration: 8.8 (µM), S9 metabolic activation: without S9, exposure time: 24 hours	0.96	1.44	120
concentration: 11 (µM), S9 metabolic activation: with S9, exposure time: 3-4 hours	0.2	1.06	97.9
concentration: 11 (µM), S9 metabolic activation: without S9, exposure time: 24 hours	0.96	1.74	116
concentration: 13.7 (µM), S9 metabolic activation: with S9, exposure time: 3-4 hours	0.12	0.98	135
concentration: 13.7 (µM), S9 metabolic activation: without S9, exposure time: 24 hours	0.8	1.04	108
concentration: 17.2 (µM), S9 metabolic activation: with S9, exposure time: 3-4 hours	0.18	0.94	125
concentration: 17.2 (µM), S9 metabolic activation: without S9, exposure time: 24 hours	1.14	1.22	121
concentration: 21.5 (µM), S9 metabolic activation: with S9, exposure time: 3-4 hours	0.42	1.1	120
concentration: 21.5 (µM), S9 metabolic activation: without S9, exposure time: 24 hours	1.06	1.78	107
concentration: 26.8 (µM), S9 metabolic activation: with S9, exposure time: 3-4 hours	0.3	1.46	133
concentration: 26.8 (µM), S9 metabolic activation: without S9, exposure time: 24 hours	0.8	1.7	109
concentration: 33.6 (µM), S9 metabolic activation: with S9, exposure time: 3-4 hours	0.2	0.92	110
concentration: 33.6 (µM), S9 metabolic activation: without S9, exposure time: 24 hours	0.88	1.72	99.7
concentration: 41.9 (µM), S9 metabolic activation: with S9, exposure time: 3-4 hours	0.28	0.82	120
concentration: 41.9 (µM), S9 metabolic activation: without S9, exposure time: 24 hours	1.22	1.92	104
concentration: 52.4 (µM), S9 metabolic activation: with S9, exposure time: 3-4 hours	0.36	1.06	106
concentration: 52.4 (µM), S9 metabolic activation: without S9, exposure time: 24 hours	0.76	1.84	102
concentration: 65.5 (µM), S9 metabolic activation: with S9, exposure time: 3-4 hours	0.22	1.1	88.4
concentration: 65.5 (µM), S9 metabolic activation: without S9, exposure time: 24 hours	1.16	1.5	102
concentration: 81.9 (µM), S9 metabolic activation: with S9, exposure time: 3-4 hours	0.2	1.2	109
concentration: 81.9 (µM), S9 metabolic activation: without S9, exposure time: 24 hours	1.58	1.68	98.6
concentration: 102 (µM), S9 metabolic activation: with S9, exposure time: 3-4 hours	0.24	0.9	124
concentration: 102 (µM), S9 metabolic activation: without S9, exposure time: 24 hours	1.46	1.46	82.6
concentration: 128 (µM), S9 metabolic activation: with S9, exposure time: 3-4 hours	0.18	1.06	118
concentration: 128 (µM), S9 metabolic activation: without S9, exposure time: 24 hours	1.92	1.38	88.7
concentration: 160 (µM), S9 metabolic activation: with S9, exposure time: 3-4 hours	0.2	1.06	101
concentration: 160 (µM), S9 metabolic activation: without S9, exposure time: 24 hours	2.26	1.4	88.2
concentration: 200 (µM), S9 metabolic activation: with S9, exposure time: 3-4 hours	0.14	0.99	80.8
concentration: 200 (µM), S9 metabolic activation: without S9, exposure time: 24 hours	1.9	2.08	77.4

Cc1ccccc1N [2-Methylaniline]
Conditions	hypodiploid nuclei frequency, CHO-K1 [3] [%]	micronucleus frequency, CHO-K1 [2] [%]	relative survival, CHO-K1 [1]
concentration: 4.53 (µM), S9 metabolic activation: with S9, exposure time: 3-4 hours	0.2	1.16	139
concentration: 4.53 (µM), S9 metabolic activation: without S9, exposure time: 24 hours	0.76	1.26	124
concentration: 5.66 (µM), S9 metabolic activation: with S9, exposure time: 3-4 hours	0.26	1.66	125
concentration: 5.66 (µM), S9 metabolic activation: without S9, exposure time: 24 hours	0.44	1.14	104
concentration: 7.07 (µM), S9 metabolic activation: with S9, exposure time: 3-4 hours	0.24	1.54	138
concentration: 7.07 (µM), S9 metabolic activation: without S9, exposure time: 24 hours	0.78	1.24	105
concentration: 8.84 (µM), S9 metabolic activation: with S9, exposure time: 3-4 hours	0.12	1.44	114
concentration: 8.84 (µM), S9 metabolic activation: without S9, exposure time: 24 hours	0.52	1.28	120
concentration: 11.1 (µM), S9 metabolic activation: with S9, exposure time: 3-4 hours	0.34	1.16	130
concentration: 11.1 (µM), S9 metabolic activation: without S9, exposure time: 24 hours	0.64	0.98	99.1
concentration: 13.8 (µM), S9 metabolic activation: with S9, exposure time: 3-4 hours	0.24	1.46	136
concentration: 13.8 (µM), S9 metabolic activation: without S9, exposure time: 24 hours	0.44	1.36	125
concentration: 17.3 (µM), S9 metabolic activation: with S9, exposure time: 3-4 hours	0.3	1.34	136
concentration: 17.3 (µM), S9 metabolic activation: without S9, exposure time: 24 hours	0.44	1.36	92.8
concentration: 21.6 (µM), S9 metabolic activation: with S9, exposure time: 3-4 hours	0.3	1.2	127
concentration: 21.6 (µM), S9 metabolic activation: without S9, exposure time: 24 hours	0.48	1.32	87.8
concentration: 27 (µM), S9 metabolic activation: with S9, exposure time: 3-4 hours	0.34	0.76	150
concentration: 27 (µM), S9 metabolic activation: without S9, exposure time: 24 hours	0.58	1.56	125
concentration: 33.7 (µM), S9 metabolic activation: with S9, exposure time: 3-4 hours	0.2	0.92	163
concentration: 33.7 (µM), S9 metabolic activation: without S9, exposure time: 24 hours	0.74	2.96	120
concentration: 42.2 (µM), S9 metabolic activation: with S9, exposure time: 3-4 hours	0.22	0.82	169
concentration: 42.2 (µM), S9 metabolic activation: without S9, exposure time: 24 hours	0.9	4.92	128
concentration: 52.7 (µM), S9 metabolic activation: with S9, exposure time: 3-4 hours	0.24	1.12	130
concentration: 52.7 (µM), S9 metabolic activation: without S9, exposure time: 24 hours	0.82	2.28	112
concentration: 65.9 (µM), S9 metabolic activation: with S9, exposure time: 3-4 hours	0.22	1.34	143
concentration: 65.9 (µM), S9 metabolic activation: without S9, exposure time: 24 hours	1.08	1.4	137
concentration: 82.3 (µM), S9 metabolic activation: with S9, exposure time: 3-4 hours	0.46	0.94	109
concentration: 82.3 (µM), S9 metabolic activation: without S9, exposure time: 24 hours	1.16	3.62	117
concentration: 103 (µM), S9 metabolic activation: with S9, exposure time: 3-4 hours	0.26	0.92	114
concentration: 103 (µM), S9 metabolic activation: without S9, exposure time: 24 hours	0.96	1.28	107
concentration: 129 (µM), S9 metabolic activation: with S9, exposure time: 3-4 hours	0.26	1.52	116
concentration: 129 (µM), S9 metabolic activation: without S9, exposure time: 24 hours	1.22	1.74	101
concentration: 161 (µM), S9 metabolic activation: with S9, exposure time: 3-4 hours	0.2	1.14	127
concentration: 161 (µM), S9 metabolic activation: without S9, exposure time: 24 hours	1.26	2.52	97.1
concentration: 201 (µM), S9 metabolic activation: with S9, exposure time: 3-4 hours	0.22	1.02	109
concentration: 201 (µM), S9 metabolic activation: without S9, exposure time: 24 hours	1.36	2.32	82.2

Nc1ccc2ccccc2c1 [2-Naphthylamine]
Conditions	hypodiploid nuclei frequency, CHO-K1 [3] [%]	micronucleus frequency, CHO-K1 [2] [%]	relative survival, CHO-K1 [1]
concentration: 4.5 (µM), S9 metabolic activation: with S9, exposure time: 3-4 hours	0.16	1.22	95.2
concentration: 4.5 (µM), S9 metabolic activation: without S9, exposure time: 24 hours	0.81	1.77	100
concentration: 5.63 (µM), S9 metabolic activation: with S9, exposure time: 3-4 hours	0.16	1.98	105
concentration: 5.63 (µM), S9 metabolic activation: without S9, exposure time: 24 hours	0.46	1.04	115
concentration: 7.04 (µM), S9 metabolic activation: with S9, exposure time: 3-4 hours	0.26	1.06	105
concentration: 7.04 (µM), S9 metabolic activation: without S9, exposure time: 24 hours	0.72	1.28	125
concentration: 8.8 (µM), S9 metabolic activation: with S9, exposure time: 3-4 hours	0.14	1.06	91.4
concentration: 8.8 (µM), S9 metabolic activation: without S9, exposure time: 24 hours	0.57	1.27	132
concentration: 11 (µM), S9 metabolic activation: with S9, exposure time: 3-4 hours	0.16	1.66	98.4
concentration: 11 (µM), S9 metabolic activation: without S9, exposure time: 24 hours	0.46	1.56	116
concentration: 13.7 (µM), S9 metabolic activation: with S9, exposure time: 3-4 hours	0.24	1.36	99.7
concentration: 13.7 (µM), S9 metabolic activation: without S9, exposure time: 24 hours	0.59	1.35	126
concentration: 17.2 (µM), S9 metabolic activation: with S9, exposure time: 3-4 hours	0.2	1.26	97.1
concentration: 17.2 (µM), S9 metabolic activation: without S9, exposure time: 24 hours	0.64	1.32	105
concentration: 21.5 (µM), S9 metabolic activation: with S9, exposure time: 3-4 hours	0.28	1.5	95.8
concentration: 21.5 (µM), S9 metabolic activation: without S9, exposure time: 24 hours	0.53	1.11	89.6
concentration: 26.8 (µM), S9 metabolic activation: with S9, exposure time: 3-4 hours	0.28	1.68	74.8
concentration: 26.8 (µM), S9 metabolic activation: without S9, exposure time: 24 hours	0.64	1.3	114
concentration: 33.6 (µM), S9 metabolic activation: with S9, exposure time: 3-4 hours	0.26	2.3	73.7
concentration: 33.6 (µM), S9 metabolic activation: without S9, exposure time: 24 hours	0.76	1.56	118
concentration: 41.9 (µM), S9 metabolic activation: with S9, exposure time: 3-4 hours	0.36	1.94	63.8
concentration: 41.9 (µM), S9 metabolic activation: without S9, exposure time: 24 hours	0.86	1.58	122
concentration: 52.4 (µM), S9 metabolic activation: with S9, exposure time: 3-4 hours	0.38	2.52	67.3
concentration: 52.4 (µM), S9 metabolic activation: without S9, exposure time: 24 hours	1.06	1.52	110
concentration: 65.5 (µM), S9 metabolic activation: with S9, exposure time: 3-4 hours	0.38	1.46	77.7
concentration: 65.5 (µM), S9 metabolic activation: without S9, exposure time: 24 hours	1.6	3.38	43.8
concentration: 81.9 (µM), S9 metabolic activation: with S9, exposure time: 3-4 hours	0.2	1.66	73.8
concentration: 81.9 (µM), S9 metabolic activation: without S9, exposure time: 24 hours	1.58	2.54	56
concentration: 102 (µM), S9 metabolic activation: with S9, exposure time: 3-4 hours	0.22	1.62	77.1
concentration: 102 (µM), S9 metabolic activation: without S9, exposure time: 24 hours	1.36	2.26	70.6
concentration: 128 (µM), S9 metabolic activation: with S9, exposure time: 3-4 hours	0.2	1.38	83.7
concentration: 128 (µM), S9 metabolic activation: without S9, exposure time: 24 hours	1.86	2.58	82.4
concentration: 160 (µM), S9 metabolic activation: with S9, exposure time: 3-4 hours	0.42	1.94	80.3
concentration: 160 (µM), S9 metabolic activation: without S9, exposure time: 24 hours	–	–	28.7
concentration: 200 (µM), S9 metabolic activation: with S9, exposure time: 3-4 hours	0.34	1.18	77.5
concentration: 200 (µM), S9 metabolic activation: without S9, exposure time: 24 hours	–	–	37.5
